# Experimental data reported in PubChem BioAssay AID1347417 (National Center for Advancing Translational Sciences (NCATS), 2020).
# Out of some 120,000 compounds screened, about 5,300 (4.4%) were called active. The shares of active, inactive and inconclusive entries below differ from those in the screen. Calls follow the shape of the dose curve; as a rule, active = well fitted inhibition curve with a large enough effect; inconclusive = small, poorly fitted or top-dose-only effect; inactive = no such curve, though single readings can be large or run the other way. Where the call is inconclusive, the potency comes from a doubtful curve fit.
# Assay: qHTS Primary assay for Inhibitors of Plasmodium falciparum Dd2 growth in vitro; also: nearly all actives have a fitted effect of over 65% in size;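 as to activity, negative = inhibition: plate controls were DMSO vehicle for no effect and reference drug for full effect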
# Conditions: P. falciparum Dd2 growth, SYBR Green, 72 h; activity, negative = inhibition: at 28.9 µM (top of the series) unless noted; series mostly up to 28.9 µM
# Outline: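 Infected erythrocytes (Dd2, 0.3% parasitemia, 2.5% hematocrit final) are added to compound in RPMI-1640/Albumax II medium, grown 72 h at 37C in low oxygen, then lysed with saponin/Triton-X containing SYBR Green and read by fluorescence.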
# Potency is read from the fitted curve at half-maximal effect; tags tell the direction and shape of the fitted curve.
SMILES,"activity, negative = inhibition",Potency,outcome
CC(C)N1C(=O)C2(CCCC2)C1C(=O)N1CCCC1 (stereo unspecified),inactive: -10%,–,–
CN(CCCN1c2ccccc2CCc2ccccc21)C(=O)C1CNCCO1 (stereo unspecified),–,"inconclusive: 14.1 µM [inhibitor, partial curve, poor fit]",–
CCOc1ccc(CCNC(=O)c2ccc3c(c2)N(Cc2ccc(F)cc2)CCS3)cc1,–,"inconclusive: 10 µM [inhibitor, single point]",–
CCN(CC)CCNC(=O)C12CCCC=C1N(c1ccccc1)C(=O)CC2 (stereo unspecified),–,"inconclusive: 8.91 µM [inhibitor, partial curve]",–
CN(C)c1nc2c(c(=O)[nH]1)CCN(Cc1ccc(F)c(F)c1)CC2,–,–,inactive [at 5.79 µM]
COc1cccc(CN2CCCCCNC(=O)CC2c2ccccc2)c1 (stereo unspecified),–,"inconclusive: 11.2 µM [inhibitor, partial curve, poor fit]",–
COc1ccc(N2C(=O)CS(=O)(=O)C23C(=O)N(Cc2ccccc2F)c2ccccc23)cc1Cl (stereo unspecified),–,"inconclusive: 17.8 µM [inhibitor, single point]",–
O=C(Nc1nccs1)c1ccc2c(c1)OCCN(C1CCC1)C2,–,active: 7.94 µM,–
CC(=O)Nc1cccc(C(=O)N2CCC(c3n[nH]c(=O)n3-c3ccc(C)cc3)CC2)c1,–,"inconclusive: 10 µM [inhibitor, single point]",–
CCn1cc(C(=O)NCCc2ccccc2)c(=O)c2cc(S(=O)(=O)N3CCCCCC3)ccc21,–,"inconclusive: 17.8 µM [inhibitor, single point]",–
COc1ccc(Br)cc1CNC(=O)c1cc(=O)[nH]c2ccc(S(=O)(=O)N3CCCCC3C)cc12 (stereo unspecified),–,"inconclusive: 10 µM [inhibitor, single point]",–
CC1(C(=O)N2CCN(c3ccccn3)CC2)CCc2cnc(NCc3ccccc3)nc21 (stereo unspecified),–,"inconclusive: 11.2 µM [inhibitor, partial curve]",–
COc1ccc(S(=O)(=O)N(CC(=O)N2CCc3ccccc3C2)c2ccc(C)cc2)cc1,inactive: -20.7%,–,–
CCOc1ccc(S(=O)(=O)N(CC(=O)Nc2ccc(OC)cc2OC)c2ccccc2)cc1,inactive: -14.5%,–,–
O=C(c1ccsc1)N1CCc2c(nc3cc(-c4ccccc4Cl)[nH]n3c2=O)C1,–,"inconclusive: 3.98 µM [inhibitor, single point]",–
CN(C)c1nc2c(c(=O)[nH]1)CCN(Cc1cccc(F)c1F)CC2,–,–,inactive [at 5.79 µM]
CN(C)c1ccc(CNC(=O)Cc2ccc(NC(=O)N3CCCCc4ccccc43)cc2)cc1,inactive: 6.26%,–,–
COc1ccc(N2CCN(CCCNC(=O)c3nnc(Cc4ccc(F)cc4)o3)CC2)cc1,–,"inconclusive: 11.2 µM [inhibitor, single point]",–
O=C(c1ccoc1)N1CCC(Oc2cccc(F)c2)C1 (stereo unspecified),–,"inconclusive: 10 µM [inhibitor, single point]",–
Cc1ccc2c(CC(=O)Nc3ccc(S(=O)(=O)N4CCCCC4C)cc3)coc2c1C (stereo unspecified),–,"inconclusive: 17.8 µM [inhibitor, single point]",–
C=CCN1CCN(C(=O)c2ccc3c(c2)C(O)CCCCCN3CCOC)CC1 (stereo unspecified),–,"inconclusive: 17.8 µM [inhibitor, single point]",–

SMILES,"activity, negative = inhibition",Potency,outcome
COc1cc(NC(=O)Cn2c(-c3ccc(F)cc3)nc(C)c(CCO)c2=O)cc(OC)c1OC,–,"inconclusive: 12.6 µM [inhibitor, partial curve]",–
COc1ccc(C)cc1NC(=O)c1cnc(-c2ccc(F)cc2)nc1-c1ccncc1,–,"inconclusive: 1.26 µM [inhibitor, full curve]",–
CCOC(=O)Cn1c(=O)n(-c2cccc(Cl)c2)c2nc(-c3ccccc3Cl)nc(C(N)=O)c21,–,active: 10 µM,–
Cc1cccc(Cn2cc(S(=O)(=O)c3ccccc3)c(=O)c3cc(F)c(N4CCOCC4)cc32)c1,–,active: 8.91 µM,–
CC(C)C[C@@H]1N[C@H](C(=O)NCc2ccncc2)Cc2cn(Cc3ccncc3)c3cccc1c23,–,"inconclusive: 0.501 µM [inhibitor, full curve, poor fit]",–
CCOc1ccccc1CN1CCn2c(nnc2[C@@H]2C[C@@H](O)CN2C)C1,inactive: -9.02%,–,–
CC(=O)N1c2ccc(S(=O)(=O)N3CCC(C(=O)Nc4cccc(Cl)c4C)CC3)cc2CC1C (stereo unspecified),inconclusive: -59.9% [inhibitor] [at 5.79 µM],–,–
Cc1cccc(-c2nc3c4c(-c5ccccc5)c(-c5ccccc5)oc4ncn3n2)c1,–,"inconclusive: 17.8 µM [inhibitor, single point]",–
CC(=O)NC1(C)CCN(Cc2cccc(Nc3ccccc3)c2)C1 (stereo unspecified),–,"inconclusive: 8.91 µM [inhibitor, partial curve, poor fit]",–
O=C1Nc2ccccc2C2(CCN(C(=O)c3ccccc3F)C2)O1 (stereo unspecified),inactive: -26% [at 44.1 µM],–,–
O=C(c1cccs1)N1CCC2(CC1)CN(Cc1ccccc1)CC2CO (stereo unspecified),–,"inconclusive: 11.2 µM [inhibitor, single point]",–
CCCN1CCC(N2CCC(C(=O)Nc3cccc(-c4cccc(F)c4)c3)CC2)CC1,–,active: 2.24 µM,–
Cc1c(C)c2c(cc(C)c3c(-c4ccc(Br)cc4)coc32)oc1=O,–,"inconclusive: 15.8 µM [inhibitor, single point]",–
CCC(Oc1ccccc1)C(=O)Nc1cccc(OCc2cc(=O)n3cccc(C)c3n2)c1 (stereo unspecified),–,–,inactive
CCOc1ccc(C(=O)NC2CCN(c3cc(-c4ccc(OC)cc4)[nH]n3)CC2)cc1OCC,–,"inconclusive: 3.98 µM [inhibitor, single point]",–
Cc1ccccc1C(=O)Nc1ccc(S(=O)(=O)N2CCC(c3nc4ccccc4s3)CC2)cc1,–,"inconclusive: 11.2 µM [inhibitor, single point]",–
O=C(NCCc1c[nH]c2ccccc12)c1c(OCC2CC2)cc(=O)n2c1CCOCC2,–,"inconclusive: 2 µM [inhibitor, full curve]",–
COc1ccc(C2CC(C(=O)NCc3ccccc3)CN(C(=O)C3CC3)C2)cc1OC (stereo unspecified),–,"inconclusive: 7.94 µM [inhibitor, partial curve, poor fit]",–
COc1ccc(CNc2ncnc3c2CN(C2CCC2)C(=O)CN3C)cc1,–,"inconclusive: 3.98 µM [inhibitor, partial curve]",–
CC(c1cccc(-c2cccc(C(=O)N(C)C)n2)c1)N1CCCC1 (stereo unspecified),inactive: -8.23%,–,–
